Reference: the BET-seq Pho4 binding data (Le et al. 2018)
The list shows a part of the results. These are noisy estimates, calculated here from bound and input reads.

Molecular target: T1, Pho4 (S. cerevisiae) (UniProt P07270)
T1 sequence: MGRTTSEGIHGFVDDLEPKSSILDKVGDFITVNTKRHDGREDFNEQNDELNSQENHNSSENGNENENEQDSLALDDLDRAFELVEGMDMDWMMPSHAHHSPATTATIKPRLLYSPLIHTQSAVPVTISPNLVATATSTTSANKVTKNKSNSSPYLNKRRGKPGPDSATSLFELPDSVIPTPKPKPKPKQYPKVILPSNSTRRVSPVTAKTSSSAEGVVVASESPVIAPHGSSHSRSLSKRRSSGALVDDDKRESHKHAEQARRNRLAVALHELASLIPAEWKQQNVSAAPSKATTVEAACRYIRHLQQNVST
Assay: relative binding free energy (BET-seq); higher = weaker binding
Details: reference: library average

Q: With TTTGGCACGTGAGGCG as the sequence, how does the “relative binding free energy” value read?
A: 0.15 kcal/mol

Q: Which “relative binding free energy” value does the source give for ATTTACACGTGGTATT here?
A: -0.03 kcal/mol

Q: With AGGGGCACGTGTTTCG as the sequence, how does the “relative binding free energy” value read?
A: -0.16 kcal/mol

Q: For AGCTGCACGTGTTTGT, which “relative binding free energy” value is on record?
A: -0.03 kcal/mol

Q: For AGTTGCACGTGATTGC, which “relative binding free energy” value is on record?
A: 0.14 kcal/mol

Q: Which “relative binding free energy” value does the source give for GGTTACACGTGTACTG here?
A: 0.22 kcal/mol

Q: GCTGTCACGTGGTATT was tested. Which “relative binding free energy” value did it give?
A: 0.12 kcal/mol

Q: For ATTTGCACGTGTATCG, which “relative binding free energy” value is on record?
A: -0.04 kcal/mol

Q: With TTTATCACGTGGTCTT as the sequence, how does the “relative binding free energy” value read?
A: -0.01 kcal/mol

Q: For ATGTGCACGTGATTCG, which “relative binding free energy” value is on record?
A: 0.03 kcal/mol

Q: With TTTTACACGTGGGCAA as the sequence, how does the “relative binding free energy” value read?
A: -0.03 kcal/mol

Q: With TGGTTCACGTGGATTT as the sequence, how does the “relative binding free energy” value read?
A: 0.43 kcal/mol

Q: For ATGGACACGTGCTGGT, which “relative binding free energy” value is on record?
A: -0.02 kcal/mol

Q: For GGGTCCACGTGTAAGG, which “relative binding free energy” value is on record?
A: 0.06 kcal/mol

Q: How did the “relative binding free energy” value turn out when TCTGGCACGTGTAGTC was run?
A: 0.01 kcal/mol

Q: GTTGGCACGTGAGGAT was tested. Which “relative binding free energy” value did it give?
A: 0.19 kcal/mol

Q: AAGGGCACGTGGTAGT was tested. Which “relative binding free energy” value did it give?
A: -0.15 kcal/mol

Q: Which “relative binding free energy” value does the source give for TTGTGCACGTGTGATA here?
A: -0.07 kcal/mol

Q: With CTATGCACGTGGGTGT as the sequence, how does the “relative binding free energy” value read?
A: -0.33 kcal/mol

Q: Which “relative binding free energy” value does the source give for GAGGTCACGTGATGCG here?
A: 0.27 kcal/mol

Q: For TCGATCACGTGGGAGG, which “relative binding free energy” value is on record?
A: 0.21 kcal/mol

Q: With GTCGTCACGTGAGTGA as the sequence, how does the “relative binding free energy” value read?
A: 0.3 kcal/mol

Q: CTCTTCACGTGTGGGG was tested. Which “relative binding free energy” value did it give?
A: 0.27 kcal/mol

Q: GTGATCACGTGTGGAT was tested. Which “relative binding free energy” value did it give?
A: 0.1 kcal/mol

Q: How did the “relative binding free energy” value turn out when GAAGGCACGTGCGAGT was run?
A: -0.04 kcal/mol

Q: For GTGGGCACGTGAGTTG, which “relative binding free energy” value is on record?
A: 0.22 kcal/mol

Q: Which “relative binding free energy” value does the source give for CTGGGCACGTGTGGCG here?
A: -0.01 kcal/mol

Q: AGTATCACGTGGTAGG was tested. Which “relative binding free energy” value did it give?
A: 0.07 kcal/mol

Q: Which “relative binding free energy” value does the source give for ATTGACACGTGGGGCT here?
A: -0.17 kcal/mol

Q: With AGAGACACGTGAAGTG as the sequence, how does the “relative binding free energy” value read?
A: 0.18 kcal/mol

Q: How did the “relative binding free energy” value turn out when TGAGCCACGTGGTTCG was run?
A: 0.1 kcal/mol

Q: With GGTTACACGTGAATGT as the sequence, how does the “relative binding free energy” value read?
A: 0.31 kcal/mol

Q: Which “relative binding free energy” value does the source give for AACGACACGTGTTTGT here?
A: 0.15 kcal/mol

Q: Which “relative binding free energy” value does the source give for TGTGACACGTGGCATA here?
A: -0.05 kcal/mol

Q: TGTTACACGTGCCTTG was tested. Which “relative binding free energy” value did it give?
A: 0.11 kcal/mol

Q: Which “relative binding free energy” value does the source give for TAACTCACGTGTAGGT here?
A: 0.19 kcal/mol

Q: GAGATCACGTGAGTTG was tested. Which “relative binding free energy” value did it give?
A: 0.23 kcal/mol

Q: GATATCACGTGTAGGG was tested. Which “relative binding free energy” value did it give?
A: 0.21 kcal/mol

Q: Which “relative binding free energy” value does the source give for AATGTCACGTGGGACT here?
A: -0.13 kcal/mol

Q: How did the “relative binding free energy” value turn out when GGTCACACGTGATAGG was run?
A: 0.17 kcal/mol

Q: ATTTGCACGTGGTATT was tested. Which “relative binding free energy” value did it give?
A: -0.02 kcal/mol

Q: TGTCCCACGTGGGGTA was tested. Which “relative binding free energy” value did it give?
A: -0.15 kcal/mol

Q: For TTATGCACGTGTTAGT, which “relative binding free energy” value is on record?
A: 0.05 kcal/mol

Q: With TTAGGCACGTGTTTGG as the sequence, how does the “relative binding free energy” value read?
A: -0.11 kcal/mol

Q: How did the “relative binding free energy” value turn out when AAGAGCACGTGGGGTA was run?
A: -0.21 kcal/mol

Q: For TGATGCACGTGTATGT, which “relative binding free energy” value is on record?
A: 0.05 kcal/mol

Q: Which “relative binding free energy” value does the source give for TCTATCACGTGATTAG here?
A: 0.31 kcal/mol

Q: GTAGGCACGTGGGTCA was tested. Which “relative binding free energy” value did it give?
A: -0.23 kcal/mol

Q: Which “relative binding free energy” value does the source give for TCGAGCACGTGGATTT here?
A: 0.12 kcal/mol

Q: TGGTTCACGTGGCGGG was tested. Which “relative binding free energy” value did it give?
A: 0.28 kcal/mol

Q: How did the “relative binding free energy” value turn out when AGTAACACGTGAAGGG was run?
A: 0.22 kcal/mol

Q: TAGGTCACGTGAAATT was tested. Which “relative binding free energy” value did it give?
A: 0.33 kcal/mol

Q: GGTGTCACGTGGGAGA was tested. Which “relative binding free energy” value did it give?
A: -0.04 kcal/mol

Q: With GTCGTCACGTGGGAGG as the sequence, how does the “relative binding free energy” value read?
A: 0.09 kcal/mol

Q: For TTGAACACGTGGAAGT, which “relative binding free energy” value is on record?
A: 0.15 kcal/mol

Q: For ATTTACACGTGGGAGG, which “relative binding free energy” value is on record?
A: 0.15 kcal/mol

Q: For GCGTGCACGTGTGAAT, which “relative binding free energy” value is on record?
A: 0.22 kcal/mol

Q: With TTTCTCACGTGGAGCG as the sequence, how does the “relative binding free energy” value read?
A: 0.37 kcal/mol

Q: How did the “relative binding free energy” value turn out when ACTGGCACGTGTTAAG was run?
A: 0.02 kcal/mol

Q: With ATGAGCACGTGAGGTC as the sequence, how does the “relative binding free energy” value read?
A: 0.18 kcal/mol

Q: Which “relative binding free energy” value does the source give for AATATCACGTGGTGAG here?
A: 0.14 kcal/mol

Q: With GGTCTCACGTGTGGGT as the sequence, how does the “relative binding free energy” value read?
A: 0.27 kcal/mol

Q: How did the “relative binding free energy” value turn out when GATTACACGTGGTATT was run?
A: -0.11 kcal/mol
